Experimental data as given in the supplement of paper PMC10185492.
The other results are listed elsewhere or left out. Read counts after selection give these values, which scatter widely.

The substances below were run on SARS-CoV-2 3CLpro (nsp5) (assay: substrate phage enrichment score (protease-eluted vs HEPES control, +1 offset) (ratio); higher = better cleaved substrate). Settings: selection round: 4; protease elution time: 15 min.
Protocol: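 Random heptapeptide substrate phage display (M13 pIII fusion, heptapeptide between an N-terminal biotinylated AviTag GLNDIFEAQKIEWHE and pIII; phages immobilised on streptavidin) eluted by cleavage with 50 nM protease in 20 mM HEPES at 37 °C. Selected phages were NGS sequenced, and the enrichment score is (reads in protease sample + 1)/(reads in HEPES blank-selection control + 1).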

Row | Substance | substrate phage enrichment score
1 | RCMPRSQ | > 21
2 | SDGWLKD | > 21
3 | VLEKNTL | 6.45
4 | RSVCTLH | > 25
5 | SLNRFPH | 18.2
6 | QGPIMSC | > 23
7 | WPMCESH | > 28
8 | QVHVLER | 10
9 | GRYMLIK | 2.25
10 | LQEEVCI | 5.5
11 | TAGCYPE | > 25
12 | PDKLKDG | > 26
13 | RKNATLQ | > 170
14 | SRPDWCR | 0.103
15 | FKPTVTT | 1.23
16 | QQYSILG | > 32
17 | PTTTVRQ | > 26
18 | RGTTTLQ | > 34
19 | ECTRLRT | 1.65
20 | STPDVVT | 3.4
21 | SESAKYG | 15.5
22 | RIAEKNQ | > 30
23 | TWMPKNG | 17.5

Row | Substance | substrate phage enrichment score
24 | ETTGCPR | 1.19
25 | VHQGRQN | 0.107
26 | HSCSVNS | 0.6
27 | VDTLGGA | > 21
28 | CRAAHHH | 0.514
29 | SRTMPRV | 2.29
30 | QCTFKRD | 2
31 | AYPKARP | 0.833
32 | SSCKAGV | > 24
33 | HIGWSLE | 5.29
34 | AVLRQGT | > 26
35 | RVHLQCG | 29
36 | QYFGCVP | 4
37 | AGMRKTW | 0.846
38 | QTFQLDS | 2
39 | TWGTHCQ | 3.8
40 | AYTKNNP | > 23
41 | VLRPHII | 0.625
42 | PAQPLSY | > 28
43 | IRGPSAA | > 29
44 | DLKRKTE | 1.5
45 | HPPRYLN | > 21
46 | EYPFTVP | 3

Row | Substance | substrate phage enrichment score
47 | SQAGPSG | 1.59
48 | KHIKGDR | 2.74
49 | PNCKVTA | 16.5
50 | SNVNGDE | 2.12
51 | HRTENIR | 1.44
52 | KEVSPQT | 0.429
53 | CECPTKS | > 21
54 | ALCTVRC | > 28
55 | AQGAMRR | 0.273
56 | ADCQSSK | 3
57 | NKKPVSL | > 21
58 | SSSKRGP | 1.21
59 | DATRAQT | > 94
60 | SKSSRLQ | > 29
61 | IGCPVEP | 1
62 | LCTVPRQ | > 266
63 | DAERFCR | > 60
64 | TGTNWHR | 8.67
65 | VTLQSMN | > 26
66 | RSHRPQY | 1.31
67 | VEWSTGR | > 29
68 | HKNHNCR | 13.5
69 | HSLRFRC | 7.75

Row | Substance | substrate phage enrichment score
70 | SGAAAHH | 0.692
71 | CPRQILS | > 35
72 | NCYRWLW | 0.0755
73 | ALPSQPI | 2.83
74 | LEAAHHH | 0.24
75 | PAAAHHH | 0.707
76 | ACDLCKC | > 42
77 | PGADDHI | 7.38
78 | VDGGLER | 1.21
79 | GTHCMEP | > 43
80 | RTPATIH | 2.5
81 | CQAGTSR | 0.524
82 | AQLGPST | > 31
83 | ERIEIED | 22
84 | GAPELHL | 0.692
85 | NVQPCVH | 1.12
86 | GCPLRHQ | 15
87 | RETGTAY | 0.145
88 | ERQTAPN | > 33
89 | ATRILEQ | > 43
90 | SFAQPGK | > 24
91 | YFQGGSA | 1.13
92 | LKASVLQ | > 85

Row | Substance | substrate phage enrichment score
93 | EHLRGRA | 0.1
94 | CRNHALS | 3.29
95 | EITVEPN | 1.11
96 | SARTNLQ | > 24
97 | TNDKVCG | > 22
98 | PDVTGLD | > 28
99 | KATTRLH | > 58
100 | LGANTLQ | > 29
101 | SGSSRGM | 2.94
102 | TPGPQRS | 2.29
103 | VVQEQSP | 7.67
104 | VCSAWSG | 3.3
105 | ISQNECR | 1.14
106 | CGPSWEV | 18
107 | SKEPNEK | > 34
108 | KYGTHKH | 0.571
109 | SNGMRYR | 1.73
110 | VNRTECW | 4.86
111 | PTTDGVG | 1.55
112 | VAVAPRT | 0.846
113 | TREPMQR | 14
114 | CEDLLTR | > 22
115 | VSEPRVD | 0.0789

Row | Substance | substrate phage enrichment score
116 | SAAAHHY | 1.88
117 | PCARRSM | > 82
118 | QAVRCLH | 0.833
119 | VCLQAVC | 102
120 | SSHNHHH | 1.85
121 | CHGTKLW | > 33
122 | KRMETCG | 53.5
123 | YKLNSPG | > 44
124 | TLTGGAR | 0.472
125 | NTRSGMT | > 38
126 | ADFQGGS | 1.76
127 | WRPARLQ | > 21
128 | LHTGEVS | > 41
129 | CALNHGQ | > 25
130 | DSHVSMQ | > 31
131 | REDHSRQ | > 29
132 | ATERRNT | 0.677
133 | CPHNGLG | 0.13
134 | VVVRGLR | 2.09
135 | DCSQGTN | 1.67
136 | RPINTVA | 7.67
137 | PPLSPLR | 2.08
138 | FPSRATG | 0.1

Row | Substance | substrate phage enrichment score
139 | TKAAHHH | 1.36
140 | CRANSAL | 14.5
141 | SGSAAAH | 0.167
142 | QHDGQDY | 11.5
143 | RNEKMRS | > 44
144 | TTPGTFV | 1.9
145 | WVSKGCC | > 24
146 | TRSHPSE | 1.13
147 | REAAHHH | 0.878
148 | SYRNGER | 10.4
149 | CPLNTGG | > 25
150 | GLAAHHH | 0.667
151 | VSDEGDK | 1.44
152 | ATAAHHH | 0.741
153 | NSPSDAR | 3.8
154 | CRVLVCR | > 24
155 | RSREAGK | 6
156 | VNPICSC | > 46
157 | TNSPEHI | > 23
158 | FDPWDVN | 24.5
159 | KTRTNVG | 1.89
160 | DCTPDSK | 0.8
161 | CTVQKRD | 4.38

Row | Substance | substrate phage enrichment score
162 | KCLTGIV | > 21
163 | RKTPTTT | 3.22
164 | CGRYKRI | 0.04
165 | RTFTSYP | 1.67
166 | SESSPPR | > 46
167 | TGCRTVP | 0.167
168 | VNELRSR | 6.18
169 | AEASRPL | 0.0526
170 | YSENRSR | 0.538
171 | CGHAHHH | 13.7
172 | LWSCGTA | 4.5
173 | NRDSYMR | > 23
174 | VCANETG | 0.389
175 | SNWLEAA | > 51
176 | RRSTKLQ | 6.67
177 | ICGPASA | 21.2
178 | AAVYNQG | > 25
179 | YPNKPPE | > 21
180 | KTFCDLQ | 6.29
181 | MHPEWGA | 1
182 | LNVPHKD | 0.31
183 | PRERGSP | 13
184 | RNQTEAR | 0.867
